Experimental data taken from PubChem BioAssay (NCI).
“And” between values parts separate entries of the source, which are not always exact repeats. Identical values can stand only once.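 96-well plates; 48 h exposure; 5 concentrations. Endpoints by linear interpolation between flanking doses. Not reached: highest tested concentration assigned. The concentration for 50% growth inhibition is given as GI50. TGI: concentration producing complete growth inhibition.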

Test system: NCI-H322M lung
Assay: growth of human tumour cells (NCI), 48 h

Compound	TGI	GI50 [µM]
COC(=O)C1CC23CCCN4CCC5(c6ccccc6N(C=O)C15CC2)C43 (stereo not drawn)	> 100 µM	
COc1ccc(/C=C2\NC(=S)N(/C=C3\C(=O)Oc4ccccc4C3=O)C2=O)cc1OC	> 100 µM	
Cc1ccc2nc(Cl)c(/C=N/N3C(=O)/C(=C/c4cccc([N+](=O)[O-])c4)N=C3c3ccccc3)cc2c1	> 100 µM	
CC(=O)OCC1=C(C(=O)O)N2C(=O)C(NC(=O)CSc3ccncc3)C2SC1 (stereo not drawn)	> 100 µM	
CCOC(=O)N1CCN(/[N+]([O-])=N/Oc2ccc([N+](=O)[O-])cc2[N+](=O)[O-])CC1	15.2 µM	4.4
NC(=O)C(=O)N/N=C1\C(=O)N(c2ccc(Cl)cc2Cl)C(=O)C1C(=O)Nc1ccc(Cl)cc1Cl (stereo not drawn)	> 100 µM	
CC(C)Cn1cnc2c(SCc3ccc(Cl)cc3Cl)nc(N)nc21	> 100 µM	
O=C1NCC(CSc2nc3cc(C4CCCc5c4[nH]c4ccccc54)ccc3o2)N1 (stereo not drawn)	> 100 µM	
COC(=O)C1=C(C)NC(C)=C(C(=O)OC)C1c1ccccc1NO	> 100 µM	
[N-]=[N+]=NC(CCl)c1cn([C@H]2C[C@H](O)[C@@H](CO)O2)c(=O)[nH]c1=O (stereo partly drawn)	> 100 µM	
COC12C=C/C(=C(/C(=O)OCc3cncnc3)C(=O)CCCCCCCCC3(OC)C=C/C(=C(/C(=O)OCc4cncnc4)C(=O)CCCCCCCC1)O3)O2	1.92 µM	0.801
c1coc(CNc2ncnc3[nH]ncc23)c1	> 100 µM	
CN(C)c1ccc(/C=C/C(=O)CC(=O)/C=C/c2ccc(N(C)C)cc2)cc1	> 100 µM	
C[C@]12CC[C@@H]3c4ccc(O)cc4CC[C@H]3[C@@H]1CC[C@@H]2OP(=O)(O)O	> 100 µM	
COc1ccc2[nH]cc(-c3ccc(-c4c[nH]c5ccc(OC)cc45)s3)c2c1	> 39.5 µM	9.99
C[C@H](NC(=O)[C@@H](C)N)[C@H](Oc1ccc2c(cnn2-c2ccc(F)cc2)c1)c1ccc2c(c1)OCCO2	11.8 µM	3.2
Cc1ccc(S(=O)(=O)N2CCC(=O)c3cc(Br)ccc32)cc1	> 100 µM	
CC(C)Oc1c(O)c2c3c(oc(=O)n3C=CC2c2ccccc2)c1OC(C)C (stereo not drawn)	> 100 µM	
N#C[C@@H](c1nc2ccccc2s1)c1ncccc1[N+](=O)[O-]	> 31.6 µM	
BrC1=CCC23CC=C(Br)[C@H]4CC2(COC3)C[C@@H]1O4 (stereo partly drawn)	> 100 µM	
C=C(C)[C@@H]1CC[C@]2(C)CC[C@]3(C)[C@H](CC[C@@H]4[C@@]5(C)CC[C@H](O)C(C)(C)[C@@H]5CC[C@]43C)[C@@H]12	> 100 µM	
CSc1nc(NC2OCC(O)C(O)C2O)c(N)c(=O)[nH]1 (stereo not drawn)	> 100 µM	
S=c1nc(N2CCCCC2)c2cn[nH]c2[nH]1	> 100 µM	
C=CCN=c1sc2c(n1NC(=O)c1cc3ccc1CCc1ccc(cc1)CC3)C(=O)c1ccccc1C2=O	2.92 µM	1.55

Compound	TGI	GI50 [µM]
CCOC(=O)NC(Nc1ncccn1)(C(=O)OCC)C(F)(F)F (stereo not drawn)	> 100 µM	
CN(CCO)CC[C@H](CSc1ccccc1)Nc1ccc(S(=O)(=O)NC(=O)c2ccc(N3CCC([C@@H](O)c4ccccc4-c4ccc(Cl)cc4)CC3)cc2)cc1S(=O)(=O)C(F)(F)F	15.6 µM	2.52
CC[C@H](CCCC[C@H]1CC[C@@H]2CC(=O)C[C@H]12)OC	> 100 µM	
C[C@@]1(O)C[C@@H](N2C(=O)O[C@@H](c3ccccc3)[C@H]2c2ccccc2)[C@@H]1COCc1ccccc1	> 100 µM	
CCN(Cc1cc(Nc2nc(C)cn3c(-c4cn[nH]c4)cnc23)sn1)C(C)(C)CO	10.9 µM	0.0488
COc1ccc(OC)c(-c2nc3n(c2/C=C2/C(=O)Nc4ccccc42)CCS3)c1	> 100 µM	
Cc1cc2c(cc1C)OC(=O)CC2	> 100 µM	
COc1ccc(/C=C2\CCC(CNc3ccc(S(N)(=O)=O)cc3)C2=O)cc1 (stereo not drawn)	> 100 µM	
COC(=O)c1ccc(-c2nc3cc(Cl)c(Cl)cc3nc2C#N)cc1	> 100 µM	> 100
O=C(c1ccccc1)n1c(Cc2ccccc2)nc2cc(C34CC5CC(CC(C5)C3)C4)ccc21	> 100 µM	
ClCc1cccc2c(CCl)cccc12	7.69 µM	2.28
O=C1C(Cl)=C(Nc2cccc(F)c2)C(=O)N1Cc1ccc(Cl)cc1	38.1 µM	15.1
Cn1c(=O)c2c(nc3n(CCCCl)c(=O)ccn23)n(C)c1=O	> 100 µM	
CC1CCC2(O)C3(C)CC4(O)OC2(C1O)C1(O)C3(O)C(OC(=O)c2ccc[nH]2)C(O)(C(C)C)C41C (stereo not drawn)	> 100 µM	
O=c1ccn2n1Cc1ccccc1C2	> 100 µM	
CSC(=Nc1nnc(-c2ccc([N+](=O)[O-])cc2)s1)SC	> 100 µM	
O=C1Nc2ccccc2C1=Nc1cccc2ncccc12	> 100 µM	
CC(=O)NC1C(OC[C@@H](CC(=O)N[C@@H](CC(=O)O)CC(=O)N[C@H](CC(=O)N[C@@H](CCCN)CC(=O)N[C@@H](CCCN)CC(=O)N[C@H](CC(N)=O)C(C)C)C(C)C)NC(=O)C[C@@H](N)C(C)C)OC(CO)C(O)C1O (stereo partly drawn)	> 100 µM	> 100
C=C(C)C(O)CCC1(C)C=Cc2c(c(C)cc3c2[nH]c2ccccc23)O1 (stereo not drawn)	25 µM and 20.4 µM	7.87
C=CCNC(=O)N(CCCCC(NC(C)=O)C(=O)NCc1ccccc1)Cc1ccccc1 (stereo not drawn)	> 100 µM	
N#CC(C#N)=C1c2ccccc2C(=NN)c2ccccc21	> 100 µM	
CCN1CCC(O)(c2ccc(Oc3ccccc3)cc2)C(C(=O)c2ccc(Oc3ccccc3)cc2)C1 (stereo not drawn)	26.5 µM	
COc1cc(C(=O)/C=C/c2ccc(OCC#N)cc2)cc(OC)c1OC	97.7 µM	
Cc1cc(C)n(-c2nsc3ccccc23)n1	> 100 µM	

Compound	TGI	GI50 [µM]
CCOC(=O)c1c(C)nc2c(c1N)CC(=O)N2Cc1ccc(OC)cc1	> 100 µM	> 100
CN1Cc2cc3cc4c(cc3nc2N(C)C1)OCCO4	> 100 µM	
O=C(O)c1cc(CC2Cc3cc4c(cc3C2=O)CCC4)cc2c1CCC2 (stereo not drawn)	> 100 µM	
Cc1ccc(Cc2n[nH]c(=O)n2Nc2ccccc2)cc1	> 100 µM	
N=C(N)C1CN(CCCCCCCCCCN2CC(C(=N)N)C(=O)NC2=O)C(=O)NC1=O (stereo not drawn)	> 10 µM	
COC(=O)C1CC2CCC1(O[Si](C(C)C)(C(C)C)C(C)C)C(O)C2 (stereo not drawn)	95.4 µM	
CCN(CC)c1c(C(=O)/C=C/c2ccc(Cl)cc2)c(-c2ccccc2)nn(C)c1=O	4.32 µM	
CCN(Cc1ccc(Cl)cc1)c1ccc(CO)c(Cl)c1	22.2 µM	7.79
O=C(O)CCN(CCCCN(CCC(=O)O)CCC(=O)O)CCC(=O)O	> 100 µM	
COc1cc(C2=C(c3cc(OC)c4ccccc4c3OC)C(=O)c3ccccc3C2=O)c(OC)c2ccccc12	> 100 µM	
COC(=O)/C=C\COCC1C2CCC(=O)C21 (stereo not drawn)	> 25 µM	
C=C(CCOC)CCC1CCCCC(=C)[C@H]1OC(C)=O (stereo partly drawn)	> 100 µM	
COC(=O)C1=C(C)C(=O)[C@]23C(CCCC[C@H]12)C(=O)[C@H](C(=O)OC)C3C (stereo partly drawn)	> 100 µM	
CN1CCC2(CC1)ONC1=NCCN12	> 100 µM	33.7
C=C1C(=O)O[C@H]2[C@H]1CC/C(CNC(=O)/C=C/c1cc(OC)c(OC)c(OC)c1)=C\CC[C@@]1(C)O[C@@H]21	25.5 µM	12
OC(Cc1ccncc1)C(Cl)(Cl)Cl (stereo not drawn)	> 100 µM	> 100
CS(=O)(=O)OC1CCC2(C#N)CCC1C2=O (stereo not drawn)	> 100 µM	
CC1=NN(c2cccc(Cl)c2)C(=N/c2nc3ccccc3s2)/C1=C\c1ccc(Cl)cc1	> 100 µM	
COc1cc(C=O)cc(/C=N/n2c3ccccc3c3ccccc32)c1O	> 100 µM	
CCCc1cc(=O)oc2c3c(c4c(c12)OC(C)(C)CC4)O[C@@H](C)[C@H](C)[C@H]3O	34.6 µM	
OCCOCCN1CCN(CCCN2c3ccccc3Sc3ccc(C(F)(F)F)cc32)CC1	25.8 µM	
COc1ccc(C(=S)N2CCN(c3cccc(C)c3)CC2)cc1OC	> 100 µM	> 100
CCCCCCCCCCCc1nnc(N)o1	> 100 µM	
O=C1C(Cl)=C(Nc2cccc(Cl)c2)C(=O)N1Cc1ccc(Cl)cc1	19.3 µM	5.39

Compound	TGI	GI50 [µM]
C/C(N=NS(=O)(=O)c1ccccc1)=C1\C=CC=CN1O	> 100 µM	
CC1(C)O[C@H]2[C@H](O)C[C@](O)(CO)C[C@H]2O1	> 100 µM	
CC(=O)OCCCC(NC(=O)OC(C)(C)C)C(=O)NC(CCCOC(C)=O)C(=O)NC(Cc1ccc([N+](=O)[O-])cc1)C(=O)NCC(=O)OCc1ccccc1 (stereo not drawn)	34.8 µM	
N.N.N.N.N.NC(=O)c1nn[n-]n1.[Cl-].[Co+3]	> 100 µM	> 100
C[C@]12C[C@H](CCCCCCNCCOC(=O)NCCCc3ccc(N(CCCl)CCCl)cc3)C3=C4CCC(=O)C=C4CCC3C1CC[C@@H]2O (stereo partly drawn)	47.2 µM	20.2
N.N.N.N.[Co+3].[N-]=[N+]=[N-].[N-]=[N+]=[N-].[N-]=[N+]=[N-]	> 100 µM	> 100
CN(CCNC(=O)c1nn(-c2ccccc2)c2c1Cc1ccccc1-2)CCNC(=O)c1nn(-c2ccccc2)c2c1Cc1ccccc1-2	5.96 µM	
Cc1ccc2c(c1)C(=O)N(N(C)C)CC(=O)N2	> 100 µM	
N#CC1(C#N)C2(c3ccccc3)OC(c3ccccc3)(c3cc4ccccc4cc32)C1(C#N)C#N	31 µM	
CCOC(=O)c1nn2c(nc1=O)sc1ccc3ccccc3c12	> 100 µM	
COc1ccc([C@H]2CC(=O)C[C@H](c3ccc(OC)cc3)C23C(=O)c2ccccc2C3=O)cc1	> 100 µM	
CCOC(=O)Nc1ccc2c(c1)/C(=N\NC(N)=S)c1ccccc1-2	41.6 µM	12.5
O=C(O)CCCSC(=O)Nc1ccc(N=Nc2ccccc2)cc1	> 100 µM	
COc1ccc(/C=C/C(=O)c2cc(OC)c(OC)c(OC)c2)cc1OCc1cn(Cc2ccc(F)cc2)nn1	> 100 µM	3.46
C=C1C(=O)O[C@@H]2C[C@@H](C)[C@@H]3C=CC(=O)[C@@]3(C)[C@@H](O)[C@H]12	5.32 µM	
CC(C)(C)[Si](C)(C)OCC1OC(n2cnc3c(N)ncnc32)CC1O (stereo not drawn)	> 100 µM	
CN(O)C(=O)SCC(NC(=O)CCC(N)C(=O)O)C(=O)NCC(=O)O (stereo not drawn)	> 2000 µM	> 2000
O=C(COc1ccc(Cl)cc1)N1N=C(c2ccc(Cl)cc2)CC1(O)c1ccccc1 (stereo not drawn)	35.4 µM	
COc1cccc(N2CCN(CC(=O)N3CCN(c4nnc(-c5ccc(Cl)cc5)c(-c5ccc(Cl)cc5)n4)CC3)CC2)c1	> 100 µM	> 100
C=CCOc1cc(NC(=S)c2ccoc2C)ccc1OC	> 100 µM	
CCCCCCCCNc1cc2c3c(c1)CCCN3CCC2	22.2 µM	8.42
C/C=C(\C)C(=O)NC1=CC[C@@]2(C)C(=CCC3C2CC[C@@]2(C)C3CC[C@@H]2C(C)N(C)C)C1=O (stereo partly drawn)	> 28.7 µM	3.09
COc1cc(C(O)CCBr)c(OC)cc1C (stereo not drawn)	> 100 µM	
